From PubChem BioAssay AID1030 (National Center for Advancing Translational Sciences (NCATS), 2008)
The campaign covered roughly 220,000 compounds. About 16,000 (7.3%) were called active. Inconclusive results, whose numbers are uncertain, are shown with a selection of clear calls. Calls come from the whole dose curve; as a rule, active = well fitted inhibition curve with a large enough effect (not every such curve was filed as active); inconclusive = small, poorly fitted or top-dose-only effect, or another doubt; inactive = no such curve, though single readings can be large or run the other way. A potency beside an inconclusive call is a rough fit, not a confirmed value.

biological target: Aldehyde dehydrogenase 1A1 (Homo sapiens) (UniProt P00352); assay: qHTS Assay for Inhibitors of Aldehyde Dehydrogenase 1 (ALDH1A1); details: Purified ALDH1A1, NADH fluorescence, propionaldehyde substrate; series mostly up to 75.3 µM;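 for activity, negative = inhibition: plate controls were no enzyme wells and a reference inhibitor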
Potency is the fitted concentration of half-maximal effect; tags give direction and shape of the fitted curve.

Chain of UniProt P00352 (P00352 whole entry, looked up): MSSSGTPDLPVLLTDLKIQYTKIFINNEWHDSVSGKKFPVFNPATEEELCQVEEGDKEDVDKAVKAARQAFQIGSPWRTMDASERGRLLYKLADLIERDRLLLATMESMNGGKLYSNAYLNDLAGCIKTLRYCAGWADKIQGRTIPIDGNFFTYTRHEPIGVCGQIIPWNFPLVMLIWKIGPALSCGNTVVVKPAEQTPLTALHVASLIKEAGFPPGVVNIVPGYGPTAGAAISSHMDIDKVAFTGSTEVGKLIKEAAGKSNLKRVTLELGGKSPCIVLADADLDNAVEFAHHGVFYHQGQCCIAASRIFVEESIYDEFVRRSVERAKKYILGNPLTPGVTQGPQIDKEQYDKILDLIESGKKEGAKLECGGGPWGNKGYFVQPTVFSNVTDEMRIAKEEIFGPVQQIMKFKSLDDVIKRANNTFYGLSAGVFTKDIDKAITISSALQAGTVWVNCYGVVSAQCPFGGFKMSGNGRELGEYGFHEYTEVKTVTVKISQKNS

activity, negative = inhibition, inactive:
CCCCc1nc2c(c3c1C[C@H](C)OC3)CN(C(=O)C1CC1)CC2 6.05% [at 13.5 µM]

Potency, active:
COc1ccc(-c2csc(-c3[nH]cnc3N)n2)cc1 7.08 µM
O=C(OC1CCS(=O)(=O)c2sccc21)c1ccccc1 (centres undefined) 22.4 µM
Cc1onc(-c2ccccc2Cl)c1C(=O)Nc1cccnc1 22.4 µM
Cc1ccc(S(=O)(=O)NCCC(=O)OCn2nnc3ccccc3c2=O)cc1 28.2 µM
Cc1ccc(C2CC(=O)NC(SCCC(C)C)=C2C#N)cc1 (centres undefined) 12.6 µM
CCOc1ccc(/C=C/[N+](=O)[O-])c2ccccc12 28.2 µM

Potency, inactive:
Nc1cccc2c1C(=O)N(C(=O)c1ccco1)C2=O
CC(OC(=O)CN(C)S(=O)(=O)c1ccc(Cl)cc1)C(=O)Nc1cccc(Cl)c1 (centres undefined)
CCOc1cc(C2C3=C(CCCC3=O)NC3=C2C(=O)CCC3)cc(Cl)c1O
CCOC(=O)NC1(C(F)(F)F)C(=O)N(Cc2ccccn2)C2=C1C(=O)CC(C)(C)C2 (centres undefined)
Cc1cccc(C)c1NC(=O)CN(C)CC(=O)Nc1ccc(F)c(Cl)c1
COCC1CCN(Cc2nc(-c3ccc(OC)cc3)no2)CC1
Cc1cc(NC(=O)c2cc(-c3ccccn3)nc3ccccc23)no1
Fc1ccc(NC(=S)NCCN2CCOCC2)cc1
CC(C)=CC(=O)Nc1ccc(S(=O)(=O)Nc2ccccn2)cc1
Cc1nn(C)c(C)c1CN(C)S(=O)(=O)c1ccc(F)cc1
O=C1CC(C(=O)O)c2ccccc2N1 (centres undefined)
Cc1cc(C)cc(C(=O)NCC(=O)OCC(=O)Nc2ccc(C)cc2Br)c1
Cc1ccccc1-c1cc(NCCN2CCOCC2)ncn1
CC(C)C(c1nnnn1Cc1ccc2c(c1)OCO2)N1CCN(c2ccccc2)CC1 (centres undefined)
Cc1cc(C)cc(-n2c(C)cc(/C=N\NC(=O)COc3cccc4cccnc34)c2C)c1
O=C(c1ccc(=O)[nH]c1)N(Cc1cccs1)C1(C(=O)NC2CCCC2)CCCCC1
O=C(C1CCN(Cc2ccccc2)CC1)N1CCCC1
Cc1ccc(CSc2nc3ccccc3c(=O)n2Cc2ccco2)cc1

Potency, inconclusive:
COc1ccc(-c2nnc(SCc3ccccc3F)o2)cc1OC 12.6 µM [inhibitor, partial curve]
CCOC(=O)c1sc2nc(CC(=O)OC)nc(NCCN3CCOCC3)c2c1C 39.8 µM [inhibitor, single point]
Cc1ccc(-c2nc(C=Nc3cccc(C)c3)c(O)o2)cc1 39.8 µM [inhibitor, partial curve, poor fit]
Cc1nnc(NC(=O)CSc2nnc(-c3ccc(S(=O)(=O)N4CCCC4)cc3)n2C)s1 22.4 µM [inhibitor, single point]
Cc1nn(-c2ccccc2)c2nc(Cl)c(C(=O)O)cc12 39.8 µM [inhibitor, single point]
CC(=O)c1sc(NC(=O)c2ccccc2F)nc1-c1ccccc1 17.8 µM [inhibitor, single point]
O=C(NC1CCCc2ccccc21)C1CCC(CNS(=O)(=O)c2cccc3nsnc23)CC1 (centres undefined) 3.16 µM [inhibitor, partial curve]
CCOC(=O)Cc1csc(NC(=O)CSc2ncnc3c2cnn3-c2ccccc2Cl)n1 39.8 µM [inhibitor, single point]
O=C(COc1cc(Cl)c(Cl)cc1Cl)NCCc1ccccn1 11.2 µM [inhibitor, partial curve]
COc1ccc(-n2cnc3cc(NCc4ccco4)ccc32)cc1 39.8 µM [inhibitor, single point]
Clc1ccccc1-c1nc(NCCN2CCOCC2)c2ccccc2n1 44.7 µM [inhibitor, single point]
O=C(NC1CCN(C(=O)N2c3ccccc3Sc3ccccc32)CC1)c1ccco1 39.8 µM [inhibitor, single point]
O=C(NN=C1C2CC3CC(C2)CC1C3)c1cccc(S(=O)(=O)N2CCOCC2)c1 14.1 µM [inhibitor, partial curve]
O=C1c2ccccc2C(=O)N1CCCCSc1nc2ccccc2o1 3.55 µM [inhibitor, full curve]
CCN(CC)S(=O)(=O)c1ccc(NC(=O)c2ccc(Sc3nncn3C)c([N+](=O)[O-])c2)cc1 35.5 µM [inhibitor, single point]
Cc1noc(/C=C/c2ccco2)c1S(=O)(=O)N1CCC(C(=O)NC(C)c2ccccc2)CC1 (centres undefined) 31.6 µM [inhibitor, single point]
COc1ccc(N2CCN(C(=O)CSc3nnc4ncccn34)CC2)cc1 39.8 µM [inhibitor, single point]
Fc1c(F)c(F)c(/C=N/NC(=S)Nc2cccnc2)c(F)c1F 39.8 µM [inhibitor, single point]
CC(=O)c1cccc(NC(=O)NC(C)c2ccncc2)c1 (centres undefined) 39.8 µM [inhibitor, single point]
O=C(c1ccco1)n1nc(-c2cccnc2)nc1NCc1ccco1 37.7 µM [inhibitor, single point]
CCOC(=O)c1[nH]c(C)c(C(=O)N(C)Cc2ccccc2)c1C 17.8 µM [inhibitor, partial curve]
CCN(Cc1ccccc1)C(=O)C1CCN(Cc2ccc(OC)c(OC)c2OC)CC1 44.7 µM [inhibitor, single point]
COc1cc(-c2nnc(SCc3cc(=O)oc4cc(O)c(O)cc34)o2)cc(OC)c1OC 35.5 µM [inhibitor, partial curve]
O=C1CCCc2c1nc(-c1ccco1)n2O 31.6 µM [inhibitor, partial curve]
